Binding signal data for 14 molecules are collected here from paper PMC12136788.

The labels stand for the following.
T1: UNK ZnF1-3 (human, UniProt Q9C0B0 31-174)
T1 sequence: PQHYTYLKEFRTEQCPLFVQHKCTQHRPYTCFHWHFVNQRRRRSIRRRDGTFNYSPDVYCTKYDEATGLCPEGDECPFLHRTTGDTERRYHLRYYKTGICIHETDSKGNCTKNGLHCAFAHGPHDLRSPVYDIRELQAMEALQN

B1: chr3:10015032:10015033:+_ENSMUSG00000027533_ENSMUST00000029046|mus_mus|mus_mus_mus_hu_True|8_108 (ssRNA)
RNA: GGGAGUUCUACAGUCCGACGAUCGUUGUUGCCAUCACAAGUGAUGAUACAAUCUGGCUUGGCCAUUGCGCCCAUUUUUCGCAAAGCUAUUCCCACUCCUAGCUCCUUCAUGUAUUCAUCAAAGCCUUGGCUUUCCACCAGGCGCAACAGAGGAUUGAGCAUCA
B2: 29274344_29274560_747_3pUTR_ENSMUSG00000032740_ENSMUST00000040182|mouse|control|control (ssRNA)
RNA: GGGAGUUCUACAGUCCGACGAUCAUACUCAUCCAGGUUAGUCCCAUUUCCUGCAGCCAGAGGUCCAAACGUUUUAACCCAAGUGACCAAGGGGCUGGUCAUGAACUGCUCCAGAAGGGGAGUGAAGAUUUCGUUCUCCAUUUUCAACAGAGGAUUGAGCAUCA
B3: chr11:4127340:4127341:+_ENSG00000167325_ENST00000300738|hu_mus|hu_hu_hu_mus_False|78_98 (ssRNA)
RNA: GGGAGUUCUACAGUCCGACGAUCGGCAUAGUCAGGGUGCUUAGUAGUCAAGGUCGCAGCUGUUUCAGCAGCCAGGGUGUCCAGUUCCACUGUGGUGACCCCACUAUAUAGGCCUUGGAUUACUUUCAUGGUGAUCUGAGCAGGCAACAGAGGAUUGAGCAUCA
B4: chr5:153406784:153406785:-_ENSG00000055147_ENST00000520667|hu_hu|FALSE|FALSE (ssRNA)
RNA: GGGAGUUCUACAGUCCGACGAUCUUUCACCUUUAUUUCACUUUCUUGGGAAAGCAUCUCCAGAGCUUCUAGAUGUGAAAGGCCUUGAAAUUCAUCAAAGAGUAGCCCAUAAUGAGUUUUCUUGUCUGUUUCCACGGUAACCUCCAACAGAGGAUUGAGCAUCA
B5: chrX:147030916:147030917:+_ENSG00000102081_ENST00000218200|hu_hu|motif|central (ssRNA)
RNA: GGGAGUUCUACAGUCCGACGAUCUAUAAUAUUCCUACCUGCCAAGAUAUAAAAAAGGCACAGAUCAUACAACUUUUUUUGCGGAUGAAAAUGACAAAUGUCACAUCACACACAUUUCAGGGUCCACUAAAAUACUGGAAAAGUCAACAGAGGAUUGAGCAUCA
B6: chr1:16667403:16667404:+_ENSMUSG00000025940_ENSMUST00000065373|mus_hu|motif|central (ssRNA)
RNA: GGGAGUUCUACAGUCCGACGAUCUGUCAUAACCCAUUAGAUGGAUAUAGUCUUCACGGUUUGGAAAGAGCACUGGAUUAACGGACAGUGAUUUUGUUUUAGCAUAAAAUGUGGUAAAUACAUGUUUAGCAUCUGGAAUCUUCACAACAGAGGAUUGAGCAUCA
B7: chr7:149068622:149068623:-_ENSMUSG00000025139_ENSMUST00000001950|mus_hu|FALSE|FALSE (ssRNA)
RNA: GGGAGUUCUACAGUCCGACGAUCGUGAGGCCUCUGAGUGUGGCUUGUGGUCUGUCCUGGGUUAGAGUUGUUAAUAUCACGGAACAUACCAUCUAGAACGUUCCAGUCCCGCCUGACACCUUCAUUCCCAAUGGAGAAGAAAUCCAACAGAGGAUUGAGCAUCA
B8: chr2:156904787:156904788:-_ENSMUSG00000055485_ENSMUST00000069098|mus_mus|FALSE|FALSE (ssRNA)
RNA: GGGAGUUCUACAGUCCGACGAUCCCCGCCGCUCAGGCCGCGACUGCGCUCCGGUCUCCUGCGUCCGGGGGCUGCGCUCGGGCCCUGCCCCGCGCCGCGCGGCCUCUCCGCCACUCGGUGCUCUCAGCGCGCGGCCCGAUCUCCCAACAGAGGAUUGAGCAUCA
B9: 134901083_134901203_1774_ncRNA_ENSMUSG00000028809_ENSMUST00000134854|mouse|control|control (ssRNA)
RNA: GGGAGUUCUACAGUCCGACGAUCUACUGCACAUGACAACCUGUUACUAACAAUGCCACAGAUGCUCAACUGUCCACAAAACUAAGAGUCAAGAUUUCUACAAGUAAUUUGGGUUUUUAAACACUAGAUUCUGUUGGUCAAGCACAACAGAGGAUUGAGCAUCA
B10: chr9:26842284:26842285:-_ENSG00000120159_ENST00000333916|hu_hu|FALSE|FALSE (ssRNA)
RNA: GGGAGUUCUACAGUCCGACGAUCAAUUAAAUGAUGUGGCUUUGUUCAAACAUACCUAAAAUUCAAAAUCAAGUUAAAUACCUAGGCUGGCUUUUUUAUAUCACCAGCUUUCAUUAGGGCUUUAAUCGCUCUUGCCCUCAUCUCCAACAGAGGAUUGAGCAUCA
B11: chr6:30403744:30403745:+_ENSMUSG00000029775_ENSMUST00000068259|mus_hu|FALSE|FALSE (ssRNA)
RNA: GGGAGUUCUACAGUCCGACGAUCUAGGAAAGUUGAUUCACUGAUUAUCUAUGGAUUUCAAUGAUCUGUGCUUUACUCUUGCUACUGUGGAUAACCAAAGGUCACUGUUAACGUAUCUUUUGCUUAAAAAUGUUAAUAUGCUUACAACAGAGGAUUGAGCAUCA
B12: 122453508_122455146_3497_3pUTR_ENSMUSG00000034602_ENSMUST00000073792|mouse|control|control (ssRNA)
RNA: GGGAGUUCUACAGUCCGACGAUCGACACUCCUUUCUCCUCGGCCUGCUUCUGCUGAGCUGCCUCUUCUUUAUUUAAUUCUUUUUCAAUCGUUUCCCCUCUUUGGAAAAAAUAAUCUGAUAUAUUCCACAAUAAGCCUAUUGACCAACAGAGGAUUGAGCAUCA
B13: chr12:105536279:105536280:+_ENSG00000136051_ENST00000332180|hu_hu|FALSE|FALSE (ssRNA)
RNA: GGGAGUUCUACAGUCCGACGAUCAGCACUGAACAUGUAAUGUAAUCUGGCUGCAUCAACAGCAUUUUCAUAUACAUCAUCUAAAUAAAUUGGGAAGACAGCUCGAUGCCAGUAUAAAAAACAACAGUCACAUUGUGUUUGGACCAACAGAGGAUUGAGCAUCA
B14: chr11:119967308:119967309:-_ENSMUSG00000061306_ENSMUST00000103018|mus_hu|FALSE|FALSE (ssRNA)
RNA: GGGAGUUCUACAGUCCGACGAUCAGGCAGGGGAGGCAGAUUCUCCACCGUCUCCCUGGCCUUGCCUUCAGGGGCCUCCUGGCCUCUGGGCACCGCUGCCCCGGGCUCUUGAUGCACCUCCACCUGCCUGGGUUUAUCCUCCUCCAACAGAGGAUUGAGCAUCA

Some of the results follow.

This assay deals with T1, UNK ZnF1-3. Description: nsRBNS (natural sequence RNA bind-n-seq); RBNS binding buffer (assumed for nsRBNS): 25 mM Tris pH 7.5, 150 mM KCl, 3 mM MgCl2, 0.01% Triton X-100, 500 ug/ml BSA, 20 U/ml SUPERase-In, 4 C; UNK is unkempt and MSI1 is Musashi-1; names of the RNAs are library labels; protein concentration not given here; high values mean tight binding.
Molecule B1 registered a binding signal of 0.735 enrichment R.

With B2, the binding signal is 1.09 enrichment R.

For the molecule B3, the binding signal worked out at 0.896 enrichment R.

As to B4, the binding signal worked out at 1.08 enrichment R.

In the case of B5, the binding signal is 1.19 enrichment R.

Turning to B6, the binding signal worked out at 1.18 enrichment R.

With B7, the binding signal stood at 0.834 enrichment R.

As to B8, the binding signal is 1.22 enrichment R.

Regarding B9, the binding signal turned out to be 0.962 enrichment R.

Regarding B10, the binding signal stood at 0.658 enrichment R.

On to B11, for which the binding signal was determined as 0.541 enrichment R.

Molecule B12 returned a binding signal of 1.44 enrichment R.

As for B13, the binding signal amounted to 2.37 enrichment R.

B14 gave a binding signal of 0.573 enrichment R.
